What was measured:
C. difficile [1] = settings: literature reference 44; cited from earlier work
C. difficile [2] = experiment: Addition of secondary bile acids to culture media, C. difficile growth; settings: bile acid added to culture media

C[C@H](CCC(=O)O)[C@H]1CC[C@H]2[C@@H]3CC[C@@H]4C[C@H](O)CC[C@]4(C)[C@H]3C[C@H](O)[C@]12C [DCA, deoxycholic acid]
C. difficile inhibition in vitro (previously shown) (C. difficile [1]): previously shown to inhibit C. difficile in vitro
C. difficile growth inhibition in culture media (C. difficile [2]): inhibit C. difficile in a dose-dependent fashion
